Among the data in paper PMC7819943, “Rice protein-binding microarrays: a tool to detect cis-acting elements near promoter regions in rice” are binding signal values, retold here.

This is one part of the list.

The target in this test is T1, OsWOX13 (Oryza sativa, UniProt Q5QMM3 1-267).
T1 sequence: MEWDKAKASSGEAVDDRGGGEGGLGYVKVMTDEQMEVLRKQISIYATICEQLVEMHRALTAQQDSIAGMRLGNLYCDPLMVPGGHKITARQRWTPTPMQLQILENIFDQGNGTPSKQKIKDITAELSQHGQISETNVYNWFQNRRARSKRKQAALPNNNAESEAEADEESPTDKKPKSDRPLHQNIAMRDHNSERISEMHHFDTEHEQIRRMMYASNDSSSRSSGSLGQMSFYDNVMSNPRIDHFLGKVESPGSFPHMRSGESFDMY
The experiment in a line: protein-binding microarray (RPBM); PBS, 2% BSA, 51.3 ng/ul salmon testes DNA, 50 uM zinc acetate, 200 nM TF, 25 C, 1 h; high values mean tight binding. The note with it: protein: recombinant; tags: N-terminal polyhistidine and DsRed monomer fusion (pET32a); label: CyDye5-dUTP incorporated in the synthesized complementary strand; 3' TTTTT single-stranded linker to array surface; dsDNA, one strand shown. The gist of the method: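 The binding signal is fluorescence intensity per array feature (arbitrary units). Readings came from an Axon 4000B scanner after a washed, 2% BSA-blocked, double-stranded custom Agilent array had been incubated for 1 h at 25 °C with 200 nM protein and 50 µM zinc acetate. The protein was a Ni–NTA-purified transcription factor fused N-terminally to polyhistidine and DsRed, expressed in E. coli BL21-CodonPlus.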
As for “TCCCACATTTATATTGATGTATATATATATCTAGATTCATCGGAGTCACCTAGTGCAG”, the binding signal is 3440 fluorescence intensity (a.u.).

For “CCGACGAGGCTGTAATTGGAGTATTTCCATTTCCTCTCTCCGGAGTCACCTAGTGCAG”, the binding signal is 5780 fluorescence intensity (a.u.).

“ACATGTCACAGAGAATCAATCATTCACAATTAAACAGTGACGGAGTCACCTAGTGCAG”: the binding signal was 7780 fluorescence intensity (a.u.).

As to “CTCAATTATTGTTTCATTGAGCATTGTTTCCTACCATACACGGAGTCACCTAGTGCAG”, the binding signal is 13900 fluorescence intensity (a.u.).

In the case of “TCTAAACTACAAGATGATAATAATTATTTTCTTAGTCTTTCGGAGTCACCTAGTGCAG”, the binding signal was 9040 fluorescence intensity (a.u.).

In the case of “TATTGAAATTAATCAACCATCACCTACAACTCATGAATTTCGGAGTCACCTAGTGCAG”, the binding signal was 5320 fluorescence intensity (a.u.).

With “ACTATTCCTAATTAATAGATAAACTGCCATGCCGCATTCTCGGAGTCACCTAGTGCAG”, the binding signal was 14800 fluorescence intensity (a.u.).

Regarding “ACCAATAATTAGTTGCAGCTAATAAAAGTCATCTGTAGCCCGGAGTCACCTAGTGCAG”, the binding signal is 25400 fluorescence intensity (a.u.).

In the case of “ATCCATCAATTCTAATTCTAATTCAAATTTCTATTCTATTCGGAGTCACCTAGTGCAG”, the binding signal was 3620 fluorescence intensity (a.u.).

With “AACCCTGATTTCCGTGCTCAACGTTTGACCGTCCGTCTTGCGGAGTCACCTAGTGCAG”, the binding signal was 4670 fluorescence intensity (a.u.).

For “TACCAATTGATGTGATAAATTATTATAACTAAAATTTCTGCGGAGTCACCTAGTGCAG”, the binding signal is 41200 fluorescence intensity (a.u.).

As for “CTTACAAATTTACACTAGGCATTTGCGTTTCCCCGGTAAACGGAGTCACCTAGTGCAG”, the binding signal is 3460 fluorescence intensity (a.u.).

Take “TAAGGGATTGACTGTGCTAAAAGAATCTTAATTGTATAGTCGGAGTCACCTAGTGCAG”: the binding signal was 34600 fluorescence intensity (a.u.).

With “TTGAGGAGATTGGGAAGATACGCAAAACGAGGTGAGCTATCGGAGTCACCTAGTGCAG”, the binding signal was 3980 fluorescence intensity (a.u.).

With “GCAACACAAGAATTAATTTTACCGGACTTTCACACGAATTCGGAGTCACCTAGTGCAG”, the binding signal is 3560 fluorescence intensity (a.u.).

On to “CACAAAACTAATTACGATATACCATTCTCATGTAGACGTTCGGAGTCACCTAGTGCAG”, for which the binding signal is 13700 fluorescence intensity (a.u.).

As for “TGTAGATAGACTTTGTTTGGTATTACTTGGTTACCTGTCACGGAGTCACCTAGTGCAG”, the binding signal was 3310 fluorescence intensity (a.u.).

Consider “TTTTATTTAAATATTACATTAATAAAATGGTGTAACGCCACGGAGTCACCTAGTGCAG”, for which the binding signal is 3740 fluorescence intensity (a.u.).

With “ACCCTCTTCTATCAACTAATCACAACCATTCTCTATTTAACGGAGTCACCTAGTGCAG”, the binding signal was 5190 fluorescence intensity (a.u.).

For “TGACAAATCAATTGGAGAGCTAGTTATATGGGTGTTTGGACGGAGTCACCTAGTGCAG”, the binding signal was 4750 fluorescence intensity (a.u.).

Take “GTCACATCATTCTAATTTCAATTAAACTTCAAATTTTGGCCGGAGTCACCTAGTGCAG”: the binding signal was 12900 fluorescence intensity (a.u.).

Regarding “GTTATTTCTCCATCTAAGTTTGATTGACCTATATAAAATTCGGAGTCACCTAGTGCAG”, the binding signal was 8800 fluorescence intensity (a.u.).

Turning to “TGTCACATCACATCGATCATTGATTTCACTTTGATTCCTCCGGAGTCACCTAGTGCAG”, the binding signal was 5220 fluorescence intensity (a.u.).
